Results from article PMC5206748, “Disruption of cell adhesion by an antibody targeting the cell-adhesive intermediate (X-dimer) of human P-cadherin” (Scientific Reports, 2017).

Molecular target: the molecule itself
Assay: SEC; antibody and P-cadherin construct 10 μM each, 60 min at room temperature (TSP11 with EC12 K14E also 720 min), Superose 12 10/300 GL, 10 mM HEPES, 150 mM NaCl, 3 mM CaCl2, pH 7.5, 25 °C

B1: human P-cadherin EC12 (domain or fragment)
chain: not shown
notes: P-cadherin (cadherin-3), human, extracellular domains EC1-EC2; Samples monomer, X-dimer and strand-swap dimer in fast exchange; the strand-swap dimer is the major component; source: E. coli Rosetta2 (DE3), SUMO fusion, Ni-NTA, SUMO cleaved with Ulp1, SEC
binding result: binds
